Viability of KB3-1 and Nalm-6 cells after 48 h of drug alone (CellTiter-Glo), 11 doses over about 4.5 log units. % of DMSO wells, lower = more cell loss; AC50 from the fitted curve, lower = more potent. No active / inactive call. Nalm-6 was screened in two runs. AC50 is listed only for well-fitted inhibitory curves. KB3-1 is a HeLa-derived carcinoma line, Nalm-6 a B-cell precursor leukaemia line.
Assays:
KB3-1 [1] = assay: viability (% of DMSO control); higher = more viable cells
Procedure: (§1)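 Eleven-dose screen of the NCATS MIPE 3 library on cells without co-treatment; CellTiter-Glo after 48 h, as % of DMSO wells.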

Nalm-6 [2] = assay: as above
Procedure: as §1

KB3-1 [3] = assay: log AC50 of viability decrease (48 h) (log10 M); higher = less potent
Procedure: (§2)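 Eleven-dose screen of the NCATS MIPE 3 library on cells without co-treatment; CellTiter-Glo after 48 h. AC50 from the curve fit; only inhibitory curves of the better fit classes are listed.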

Nalm-6 [4] = assay: as above
Procedure: as §2

COc1cc2ncn(-c3cc(OCc4ccccc4C(F)(F)F)c(C(N)=O)s3)c2cc1OC
Conditions	log AC50 of viability decrease	viability [%]
KB3-1 [1], 0.00078 µM	–	99.6
KB3-1 [1], 0.00234 µM	–	98.2
KB3-1 [1], 0.00702 µM	–	95.3
KB3-1 [1], 0.0211 µM	–	101
KB3-1 [1], 0.0632 µM	–	96.4
KB3-1 [1], 0.19 µM	–	53.5
KB3-1 [1], 0.569 µM	–	23.3
KB3-1 [1], 1.71 µM	–	25
KB3-1 [1], 5.12 µM	–	19
KB3-1 [1], 15.4 µM	–	15.9
KB3-1 [1], 46.1 µM	–	19.5
Nalm-6 [2], run: 1, 0.00078 µM	–	98.9
Nalm-6 [2], run: 1, 0.00234 µM	–	104
Nalm-6 [2], run: 1, 0.00702 µM	–	97.7
Nalm-6 [2], run: 1, 0.0211 µM	–	102
Nalm-6 [2], run: 1, 0.0632 µM	–	92.5
Nalm-6 [2], run: 1, 0.19 µM	–	61.9
Nalm-6 [2], run: 1, 0.569 µM	–	20
Nalm-6 [2], run: 1, 1.71 µM	–	13.7
Nalm-6 [2], run: 1, 5.12 µM	–	10.7
Nalm-6 [2], run: 1, 15.4 µM	–	10.3
Nalm-6 [2], run: 1, 46.1 µM	–	12.5
Nalm-6 [2], run: 2, 0.00078 µM	–	98.7
Nalm-6 [2], run: 2, 0.00234 µM	–	99.2
Nalm-6 [2], run: 2, 0.00702 µM	–	101
Nalm-6 [2], run: 2, 0.0211 µM	–	104
Nalm-6 [2], run: 2, 0.0632 µM	–	98.3
Nalm-6 [2], run: 2, 0.19 µM	–	77.4
Nalm-6 [2], run: 2, 0.569 µM	–	21.3
Nalm-6 [2], run: 2, 1.71 µM	–	9.88
Nalm-6 [2], run: 2, 5.12 µM	–	6.91
Nalm-6 [2], run: 2, 15.4 µM	–	5.55
Nalm-6 [2], run: 2, 46.1 µM	–	5.97
Nalm-6 [4], run: 1	-6.68	–
Nalm-6 [4], run: 2	-6.53	–

Conditions	log AC50 of viability decrease
KB3-1 [3]	-6.78

COC1=CC=CC2=C1C(=NC(=N2)C3=CC=CS3)NN4C(=O)\C=C(C)/C4=O
Conditions	log AC50 of viability decrease	viability [%]
KB3-1 [1], 0.00078 µM	–	102
KB3-1 [1], 0.00234 µM	–	99.4
KB3-1 [1], 0.00702 µM	–	100
KB3-1 [1], 0.0211 µM	–	96.6
KB3-1 [1], 0.0632 µM	–	97
KB3-1 [1], 0.19 µM	–	91
KB3-1 [1], 0.569 µM	–	73.3
KB3-1 [1], 1.71 µM	–	54.9
KB3-1 [1], 5.12 µM	–	54.9
KB3-1 [1], 15.4 µM	–	34
KB3-1 [1], 46.1 µM	–	8.68
Nalm-6 [2], run: 1, 0.00078 µM	–	84.4
Nalm-6 [2], run: 1, 0.00234 µM	–	81.5
Nalm-6 [2], run: 1, 0.00702 µM	–	66.5
Nalm-6 [2], run: 1, 0.0211 µM	–	54
Nalm-6 [2], run: 1, 0.0632 µM	–	35.8
Nalm-6 [2], run: 1, 0.19 µM	–	20.5
Nalm-6 [2], run: 1, 0.569 µM	–	7.05
Nalm-6 [2], run: 1, 1.71 µM	–	3.54
Nalm-6 [2], run: 1, 5.12 µM	–	3.33
Nalm-6 [2], run: 1, 15.4 µM	–	2.71
Nalm-6 [2], run: 1, 46.1 µM	–	1.97
Nalm-6 [2], run: 2, 0.00078 µM	–	100
Nalm-6 [2], run: 2, 0.00234 µM	–	80.8
Nalm-6 [2], run: 2, 0.00702 µM	–	70.2
Nalm-6 [2], run: 2, 0.0211 µM	–	48.1
Nalm-6 [2], run: 2, 0.0632 µM	–	29.4
Nalm-6 [2], run: 2, 0.19 µM	–	12.1
Nalm-6 [2], run: 2, 0.569 µM	–	3.7
Nalm-6 [2], run: 2, 1.71 µM	–	2.42
Nalm-6 [2], run: 2, 5.12 µM	–	2.27
Nalm-6 [2], run: 2, 15.4 µM	–	1.29
Nalm-6 [2], run: 2, 46.1 µM	–	1.41
Nalm-6 [4], run: 1	-7.48	–
Nalm-6 [4], run: 2	-7.78	–

Conditions	log AC50 of viability decrease
KB3-1 [3]	-5.23

O=C(Nc1ccc(F)c(C(F)(F)F)c1)Nc1nnc(-c2ccncc2)s1
Conditions	log AC50 of viability decrease	viability [%]
KB3-1 [1], 0.00078 µM	–	99.1
KB3-1 [1], 0.00234 µM	–	104
KB3-1 [1], 0.00702 µM	–	105
KB3-1 [1], 0.0211 µM	–	109
KB3-1 [1], 0.0632 µM	–	99.2
KB3-1 [1], 0.19 µM	–	94.7
KB3-1 [1], 0.569 µM	–	105
KB3-1 [1], 1.71 µM	–	85.9
KB3-1 [1], 5.12 µM	–	90.1
KB3-1 [1], 15.4 µM	–	83
KB3-1 [1], 46.1 µM	–	73.8
Nalm-6 [2], run: 1, 0.00078 µM	–	89.2
Nalm-6 [2], run: 1, 0.00234 µM	–	96.1
Nalm-6 [2], run: 1, 0.00702 µM	–	106
Nalm-6 [2], run: 1, 0.0211 µM	–	109
Nalm-6 [2], run: 1, 0.0632 µM	–	104
Nalm-6 [2], run: 1, 0.19 µM	–	103
Nalm-6 [2], run: 1, 0.569 µM	–	106
Nalm-6 [2], run: 1, 1.71 µM	–	88.9
Nalm-6 [2], run: 1, 5.12 µM	–	81.6
Nalm-6 [2], run: 1, 15.4 µM	–	71.9
Nalm-6 [2], run: 1, 46.1 µM	–	55.1
Nalm-6 [2], run: 2, 0.00078 µM	–	89.3
Nalm-6 [2], run: 2, 0.00234 µM	–	91.4
Nalm-6 [2], run: 2, 0.00702 µM	–	93.3
Nalm-6 [2], run: 2, 0.0211 µM	–	101
Nalm-6 [2], run: 2, 0.0632 µM	–	99.8
Nalm-6 [2], run: 2, 0.19 µM	–	103
Nalm-6 [2], run: 2, 0.569 µM	–	87.3
Nalm-6 [2], run: 2, 1.71 µM	–	75.1
Nalm-6 [2], run: 2, 5.12 µM	–	56.2
Nalm-6 [2], run: 2, 15.4 µM	–	52.3
Nalm-6 [2], run: 2, 46.1 µM	–	43.5
Nalm-6 [4], run: 1	-4.98	–
Nalm-6 [4], run: 2	-5.68	–

Conditions	log AC50 of viability decrease
KB3-1 [3]	-5.23

OCCC#Cc1nc(-c2ccc(F)cc2)c(-c2ccncc2)n1CCCc1ccccc1
Conditions	log AC50 of viability decrease	viability [%]
KB3-1 [1], 0.00078 µM	–	104
KB3-1 [1], 0.00234 µM	–	102
KB3-1 [1], 0.00702 µM	–	102
KB3-1 [1], 0.0211 µM	–	99.8
KB3-1 [1], 0.0632 µM	–	109
KB3-1 [1], 0.19 µM	–	102
KB3-1 [1], 0.569 µM	–	102
KB3-1 [1], 1.71 µM	–	99.1
KB3-1 [1], 5.12 µM	–	99.1
KB3-1 [1], 15.4 µM	–	88.5
KB3-1 [1], 46.1 µM	–	60.2
Nalm-6 [2], run: 1, 0.00078 µM	–	116
Nalm-6 [2], run: 1, 0.00234 µM	–	119
Nalm-6 [2], run: 1, 0.00702 µM	–	127
Nalm-6 [2], run: 1, 0.0211 µM	–	125
Nalm-6 [2], run: 1, 0.0632 µM	–	111
Nalm-6 [2], run: 1, 0.19 µM	–	107
Nalm-6 [2], run: 1, 0.569 µM	–	117
Nalm-6 [2], run: 1, 1.71 µM	–	110
Nalm-6 [2], run: 1, 5.12 µM	–	96.6
Nalm-6 [2], run: 1, 15.4 µM	–	80.1
Nalm-6 [2], run: 1, 46.1 µM	–	25.1
Nalm-6 [2], run: 2, 0.00078 µM	–	107
Nalm-6 [2], run: 2, 0.00234 µM	–	108
Nalm-6 [2], run: 2, 0.00702 µM	–	109
Nalm-6 [2], run: 2, 0.0211 µM	–	108
Nalm-6 [2], run: 2, 0.0632 µM	–	111
Nalm-6 [2], run: 2, 0.19 µM	–	104
Nalm-6 [2], run: 2, 0.569 µM	–	110
Nalm-6 [2], run: 2, 1.71 µM	–	104
Nalm-6 [2], run: 2, 5.12 µM	–	106
Nalm-6 [2], run: 2, 15.4 µM	–	86.3
Nalm-6 [2], run: 2, 46.1 µM	–	2.53
Nalm-6 [4], run: 1	-4.78	–
Nalm-6 [4], run: 2	-4.63	–

Conditions	log AC50 of viability decrease
KB3-1 [3]	-4.73

CC(C)C1NC(=O)[C@@H](NC(=O)C2=C3\N=C\4/C(=C(/C)C(=O)\C(=C4C(=O)N[C@H]5[C@@H](C)OC(=O)C(C(C)C)N(C)C(=O)CN(C)C(=O)[C@@H]6CCCN6C(=O)C(NC5=O)C(C)C)N)OC3=C(C)C=C2)[C@@H](C)OC(=O)C(C(C)C)N(C)C(=O)CN(C)C(=O)[C@@H]7CCCN7C1=O (stereo not given in full) [Actinomycin D]
Conditions	viability [%]
KB3-1 [1], 0.00078 µM	67.1
KB3-1 [1], 0.00234 µM	56.7
KB3-1 [1], 0.00702 µM	8.56
KB3-1 [1], 0.0211 µM	13.5
KB3-1 [1], 0.0632 µM	15.4
KB3-1 [1], 0.19 µM	16.1
KB3-1 [1], 0.569 µM	13
KB3-1 [1], 1.71 µM	13.1
KB3-1 [1], 5.12 µM	11.8
KB3-1 [1], 15.4 µM	11.4
KB3-1 [1], 46.1 µM	16.2
Nalm-6 [2], run: 1, 0.00078 µM	7.21
Nalm-6 [2], run: 1, 0.00234 µM	6.04
Nalm-6 [2], run: 1, 0.00702 µM	5.84
Nalm-6 [2], run: 1, 0.0211 µM	13.5
Nalm-6 [2], run: 1, 0.0632 µM	27.1
Nalm-6 [2], run: 1, 0.19 µM	31.5
Nalm-6 [2], run: 1, 0.569 µM	31.8
Nalm-6 [2], run: 1, 1.71 µM	35.4
Nalm-6 [2], run: 1, 5.12 µM	35.3
Nalm-6 [2], run: 1, 15.4 µM	36.8
Nalm-6 [2], run: 1, 46.1 µM	29.6
Nalm-6 [2], run: 2, 0.00078 µM	7.09
Nalm-6 [2], run: 2, 0.00234 µM	5.79
Nalm-6 [2], run: 2, 0.00702 µM	6.14
Nalm-6 [2], run: 2, 0.0211 µM	17
Nalm-6 [2], run: 2, 0.0632 µM	35
Nalm-6 [2], run: 2, 0.19 µM	38.4
Nalm-6 [2], run: 2, 0.569 µM	38.1
Nalm-6 [2], run: 2, 1.71 µM	46.4
Nalm-6 [2], run: 2, 5.12 µM	48.8
Nalm-6 [2], run: 2, 15.4 µM	43.1
Nalm-6 [2], run: 2, 46.1 µM	34

Conditions	log AC50 of viability decrease
KB3-1 [3]	-8.53

Cc1ccc(-c2cc(C(F)(F)F)nn2-c2ccc([S+](N)(=O)[O-])cc2)cc1 [Celecoxib]
KB3-1 [1]
Conditions	viability [%]
0.00156 µM	100
0.00468 µM	104
0.014 µM	101
0.0421 µM	107
0.126 µM	101
0.379 µM	103
1.14 µM	107
3.41 µM	115
10.2 µM	112
30.7 µM	81.9
92.2 µM	20

Conditions	log AC50 of viability decrease
KB3-1 [3]	-4.42

Source: the supplement of paper PMC4996465
